According to the supplement of paper PMC4166925:
± gives the standard deviation of the averaged measurements. Over roughly 33,000 sequences, “E-score (dimensionless, -0.5 to 0.5)” has its median near -0.046; the highest 2% begin near 0.36. The list shows a part of the results.

These sequences were tested on T1, SpTbr T-box DNA-binding domain (GST fusion) (assay: PBM E-score of 8-mer (E-score (dimensionless, -0.5 to 0.5)); Tbr is Tbrain of the sea star Patiria miniata (Pm) or the sea urchin Strongylocentrotus purpuratus (Sp); higher = stronger binding preference; most listed sequences are background and not binding sites). Conditions: the construct has about 5 more residues each side.
T1 sequence: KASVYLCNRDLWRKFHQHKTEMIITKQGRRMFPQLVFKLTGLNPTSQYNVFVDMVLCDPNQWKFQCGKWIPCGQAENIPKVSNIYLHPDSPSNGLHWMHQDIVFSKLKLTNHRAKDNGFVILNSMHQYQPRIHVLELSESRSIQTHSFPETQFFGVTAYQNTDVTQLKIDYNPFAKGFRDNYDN
Procedure: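 Universal protein-binding microarray (Agilent AMADID 016060, 60-bp probes with a 35-bp variable region) incubated with 200 nM GST-fused Strongylocentrotus purpuratus Tbr T-box DNA-binding domain (residues 362-554) in PBS pH 7.5. Scored for every ungapped 8-mer (given with its reverse complement) as E-score (range -0.5 to 0.5; >0.45 counts as bound) and Z-score of median probe intensity. Two replicate arrays (datasets 1 and 2).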
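Note: protein at 200 nM in PBS on universal double-stranded arrays.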

Sequence	PBM E-score of 8-mer
ACAACTTA	0.187 ± 0.0019
GTCCGTTA	-0.103 ± 0.061
AAAATACA	-0.102 ± 0.0041
CGAATAGC	0.074 ± 0.005
GAAGGGCA	0.0018 ± 0.0055
CAGTCACC	0.109 ± 0.0097
ACGGGTCT	0.0764 ± 0.029
AGGATTTC	-0.0945 ± 0.063
AAGTAGCA	0.119 ± 0.071
CCTGTCAG	0.17 ± 0.015
ACTGCGCC	0.0616 ± 0.043
ATGGAACC	-0.165 ± 0.072
AAGCACTA	-0.154 ± 0.068
CACTAGGA	-0.0843 ± 0.041
TATTGGCA	0.149 ± 0.033
GCTCCTTA	-0.169 ± 0.027
TCGCCCCA	0.0276 ± 0.008
AACTACGA	-0.178 ± 0.042
CCACTACC	-0.129 ± 0.0055
GGAGCGCC	0.0178 ± 0.0015
CCTCCGAC	0.0983 ± 0.037
CTAACACA	0.354 ± 0.0043

Sequence	PBM E-score of 8-mer
CCCGAGCC	-0.0779 ± 0.015
ATGTTAGA	-0.136 ± 0.095
CTATTATA	-0.0945 ± 0.038
AACAGGAA	-0.0975 ± 0.077
CATCTGTC	0.205 ± 0.021
CCAGTCCA	-0.0564 ± 0.073
CCCAAATC	-0.108 ± 0.11
CCAGGATC	-0.202 ± 0.097
ATCACTCG	-0.0664 ± 0.056
AGCTGCAG	0.104 ± 0.069
GTTTTAGA	-0.0895 ± 0.069
CCTAAAGG	0.0965 ± 0.024
AGCAGGTC	-0.0223 ± 0.011
AGACTGCA	-0.281 ± 0.021
CAAATCAC	0.172 ± 0.11
AGATGCCT	-0.0877 ± 0.03
AGTAAACG	-0.0624 ± 0.022
CGATGAAA	-0.0179 ± 0.035
CATATGGG	0.0581 ± 0.00073
GTCGCACA	0.3754 ± 0.0036
GCGCCAAA	0.286 ± 0.0062
CCTCGGAC	-0.228 ± 0.056

Sequence	PBM E-score of 8-mer
ACTCGACG	-0.036 ± 0.039
GCCTCCGC	-0.2 ± 0.11
CCGATTAA	-0.0536 ± 0.02
GCCGTCCC	-0.0174 ± 0.12
AATACTTC	-0.00484 ± 0.0061
CGTAACCC	-0.0666 ± 0.065
ACATCGTC	0.0988 ± 0.072
CATTGTCC	0.117 ± 0.047
CGGTGCAG	-0.078 ± 0.065
ACCTCTAC	0.0249 ± 0.026
GGACCCCA	-0.364 ± 0.02
GAGAGGTA	-0.0848 ± 0.015
CAACTTTC	0.112 ± 0.053
CTCTTTGC	-0.0452 ± 0.0034
AACAGTTC	0.172 ± 0.01
GTTAACAA	0.362 ± 0.018
AAGACGGA	-0.0813 ± 0.079
TATCTGAA	-0.0546 ± 0.013
CTCGACCC	-0.088 ± 0.02
AATTTCGA	-0.103 ± 0.11
ATAGGAGC	-0.181 ± 0.022
GAAGAGAA	-0.176 ± 0.0081

Sequence	PBM E-score of 8-mer
GTAGATTA	0.0105 ± 0.069
CTAGACAC	0.0881 ± 0.056
ATAGGCTA	-0.348 ± 0.041
CCTAATTC	-0.0257 ± 0.024
TGCAGGAA	-0.131 ± 0.051
AAAAACCG	-0.0997 ± 0.088
CACGTGCG	0.29 ± 0.085
CACCTCCA	0.3876 ± 0.00048
TAACAACA	0.278 ± 0.0062
CTTGTTGC	0.0822 ± 0.063
ATTAGCCG	0.0144 ± 0.016
ACCATAGC	0.0118 ± 0.017
ACACGTTA	0.344 ± 0.043
AAAAATTC	-0.141 ± 0.074
AAAAGCAC	0.0712 ± 0.058
ATAATCAG	-0.106 ± 0.04
CATGGGTA	-0.112 ± 0.056
CGTATGAC	0.0605 ± 0.0076
GTCTGGTA	-0.259 ± 0.096
GATGAAGC	0.00808 ± 0.033
